Experimental data published in PubChem BioAssay AID504339 (National Center for Advancing Translational Sciences (NCATS), 2011).
In all, about 390,000 compounds went through this assay and about 17,000 (4.4%) were called active. This list was built around the results that the source calls inconclusive (neither active nor inactive); the mix of calls is not that of the screen. The call rests on the fitted dose curve; in most records, active means well fitted inhibition curve with a large enough effect; inconclusive means small, poorly fitted or top-dose-only effect; inactive means no such curve, though single readings can be large or run the other way. A potency beside an inconclusive call is a rough fit, not a confirmed value. The source holds several records for some structures; these can differ, active in one and inactive in another.

target: Lysine-specific demethylase 4A (Homo sapiens) (UniProt O75164); assay: qHTS Assay for Inhibitors of JMJD2A-Tudor Domain; settings: AlphaScreen JMJD2A-Tudor / H3K4me3 peptide binding; series mostly up to 114 µM; further: nearly all actives have a fitted effect of over 50% in size
Potency means the concentration at half of the fitted maximal effect; tags describe the fitted curve by direction and shape.

Chain of UniProt O75164 (O75164 whole entry, looked up, the tested form may be a part): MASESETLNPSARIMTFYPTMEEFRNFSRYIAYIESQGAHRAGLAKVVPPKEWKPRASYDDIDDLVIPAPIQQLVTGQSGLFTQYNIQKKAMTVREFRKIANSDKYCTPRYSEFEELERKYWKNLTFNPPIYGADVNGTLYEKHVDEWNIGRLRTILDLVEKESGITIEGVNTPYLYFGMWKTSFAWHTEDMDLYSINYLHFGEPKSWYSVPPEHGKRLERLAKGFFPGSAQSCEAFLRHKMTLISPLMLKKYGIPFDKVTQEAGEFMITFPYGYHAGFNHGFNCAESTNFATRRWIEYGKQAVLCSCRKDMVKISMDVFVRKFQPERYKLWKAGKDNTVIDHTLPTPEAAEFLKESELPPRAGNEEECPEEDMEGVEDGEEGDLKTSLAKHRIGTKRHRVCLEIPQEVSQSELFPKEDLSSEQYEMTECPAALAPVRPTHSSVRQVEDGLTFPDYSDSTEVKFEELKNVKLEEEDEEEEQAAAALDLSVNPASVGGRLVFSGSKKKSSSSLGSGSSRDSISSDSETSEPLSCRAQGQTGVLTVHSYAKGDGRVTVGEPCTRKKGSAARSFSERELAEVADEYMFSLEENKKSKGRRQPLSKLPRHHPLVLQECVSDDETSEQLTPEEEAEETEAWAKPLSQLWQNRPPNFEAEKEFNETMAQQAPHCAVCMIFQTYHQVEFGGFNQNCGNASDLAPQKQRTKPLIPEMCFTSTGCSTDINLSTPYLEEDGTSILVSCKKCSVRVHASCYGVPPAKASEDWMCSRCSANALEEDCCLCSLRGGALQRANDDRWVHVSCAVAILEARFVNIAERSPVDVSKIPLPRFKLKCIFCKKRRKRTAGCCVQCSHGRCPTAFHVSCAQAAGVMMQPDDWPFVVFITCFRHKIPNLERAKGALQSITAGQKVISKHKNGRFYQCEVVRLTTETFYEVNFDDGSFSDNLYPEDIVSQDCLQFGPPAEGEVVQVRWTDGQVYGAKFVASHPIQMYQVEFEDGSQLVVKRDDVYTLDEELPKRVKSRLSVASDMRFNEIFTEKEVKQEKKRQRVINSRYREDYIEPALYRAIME

Compound | Potency
CCOc1ccc(Nc2cc(=O)oc3ccccc23)cc1 | inactive
Cc1nn(-c2ccccc2)c(/N=C/c2ccccc2O)c1-c1ccccc1 | inconclusive: 0.1 µM [inhibitor, full curve, poor fit]
C/C(N)=C(/C#N)C(=O)COC(=O)c1ccccc1Oc1ccccc1 | inconclusive: 17.8 µM [inhibitor, single point]
O=C(NC1=NCCS1)C12CC3CC(C1)CC(C(=O)NC1=NCCS1)(C3)C2 | active: 56.2 µM
CCN(CC)CCCN1C(=O)C(O)=C(C(=O)c2ccco2)C1c1ccc(C)o1 (stereo not given) | inconclusive: 89.1 µM [inhibitor, single point]
Cc1ccc(-n2nc(CO)c(C(=O)NCCC(C)C)n2)cc1C | inactive
COc1ccc(N2Cc3ccccc3C2=NC(=O)c2ccc(C)cc2)cc1OC | inconclusive: 56.2 µM [inhibitor, partial curve]
CCc1cccc(NC(=O)CSc2nnc(-c3cc4occc4n3C)n2-c2ccccc2C)c1 | inconclusive: 28.2 µM [inhibitor, full curve]
COc1cc(O)c(C(CCN2CCN(c3ccccc3)CC2)c2cc(OC)c(OC)c(OC)c2)c(OC)c1 (stereo not given) | active: 39.8 µM
COc1ccc(C(=O)N2CCC(C(=O)Nc3ccc(C)cc3)CC2)cc1 | inconclusive: 11.2 µM [inhibitor, partial curve, poor fit]
COc1ccc2c(c1)c(=O)oc1c(C)c(OCc3cc(C(=O)O)oc3C)ccc12 | active: 28.2 µM
CC(=O)N1CCN(c2ccc(NC(=O)C(c3ccccc3)c3ccccc3)cc2)CC1 | inconclusive: 63.1 µM [inhibitor, partial curve]
COc1ccc(Nc2ncnc3c2cnn3Cc2ccc(C)cc2)cc1 | inconclusive: 89.1 µM [inhibitor, single point]
N=C1SC(c2ccccc2)C(=O)N1c1ncc(Cc2ccccc2)s1 (stereo not given) | inactive
CCN(CC)C(=O)c1cn(-c2ccccc2)nc1-c1ccc2c(c1)OCCO2 | inconclusive: 56.2 µM [inhibitor, partial curve]
Oc1ccc(/C=N/n2c(COc3ccccc3)n[nH]c2=S)cc1O | active: 3.16 µM
COc1ccc(S(=O)(=O)N2CCN(CC(=O)c3ccc(O)c(O)c3)CC2)cc1 | inconclusive: 79.4 µM [inhibitor, partial curve]
Cc1c(OCC(=O)N[C@@H](Cc2ccccc2)C(=O)O)ccc2c1oc(=O)c1ccccc12 | inactive
COCCNC(=S)N(CCc1c(C)[nH]c2ccc(C)cc12)Cc1cc(OC)c(OC)c(OC)c1 | inconclusive: 50.1 µM [inhibitor, partial curve]
Cc1c2cc(O)c(=O)cc-2oc2cc(O)c(O)cc12 | active: 1.41 µM
CS(=O)(=O)CC[C@@H](C(=O)NCCc1ccccc1)N1Cc2ccccc2C1=O | inactive
Cc1ccc(OC2=NS(=O)(=O)c3ccccc32)cc1 | inconclusive: 126 µM [inhibitor, single point]
CC(Cc1c[nH]c2ccccc12)C(=O)O (stereo not given) | active: 25.1 µM
Cc1cc(C)c2c(=O)cc(C(=O)Nc3sc4c(c3C(=O)NCc3ccco3)CCCC4)oc2c1 | inactive

Compound | Potency
Cc1cc(C)c(OCCCNC2CCCC2)c(Br)c1 | active: 79.4 µM
COC(=O)c1cc2c(ccn2-c2ccc(F)cc2)n1CC(C)C | inconclusive: 56.2 µM [inhibitor, partial curve]
Cn1nnnc1Sc1ncnc2scc(-c3cccc4c3sc3ccccc34)c12 | active: 39.8 µM
COc1cccc(/C=C2\C(=O)C(=O)c3ccccc32)c1 | inconclusive: 79.4 µM [inhibitor, partial curve]
CC(=O)c1ccc(NC(=O)c2nc(-c3ccc(Cl)cc3)n3c2CCCCC3)cc1 | inconclusive: 11.2 µM [inhibitor, full curve, poor fit]
CC[n+]1c(C)sc2c3ccsc3ccc21 | active: 56.2 µM
COc1ccc2[nH]c(O)c(N=NC(=O)c3ccc(NS(=O)(=O)c4cccs4)cc3)c2c1 | inconclusive: 50.1 µM [inhibitor, partial curve]
NNS(=O)(=O)c1ccc(N2CCCC2=O)c([N+](=O)[O-])c1 | active: 25.1 µM
COc1ccc(-c2sc3ccccc3c2C#Cc2cncn2C)cc1 | inconclusive: 31.6 µM [inhibitor, full curve]
Nc1nc(CN2CCCCCC2)nc(Nc2ccc(F)cc2)n1 | active: 79.4 µM
N#Cc1cc2c(nc1SCc1cccnc1)CCCC2 | inconclusive: 39.8 µM [inhibitor, single point]
COc1cccc(C(=O)O/N=C(\N)c2ccccn2)c1OC | inconclusive: 12.6 µM [inhibitor, full curve]
Cc1ccc(CN2CCSc3ccc(C(=O)NCc4ccccn4)cc32)cc1 | inconclusive: 44.7 µM [inhibitor, partial curve]
O=C1Nc2ccc(S(=O)(=O)NCc3ccco3)c3cccc1c23 | inconclusive: 63.1 µM [inhibitor, partial curve, poor fit]
Cc1cc(-c2nn(C)c(=O)c3ccccc23)ccc1CNC(=O)NC1CCCCC1 | inconclusive: 3.98 µM [inhibitor, full curve, poor fit]
O=C(Cc1ccc(S(=O)(=O)N2CCCC2)s1)Nc1cccc([N+](=O)[O-])c1 | inconclusive: 63.1 µM [inhibitor, partial curve, poor fit]
COc1ccc(S(=O)(=O)c2c(C(=O)c3ccc(C)c(C)c3)cnc3ccc(C)cc23)cc1 | inconclusive: 3.55 µM [inhibitor, partial curve, poor fit]
CCOc1cc2c(cc1OCC)C(c1ccccc1)N(c1ccccc1)C(=O)C2 (stereo not given) | inactive
COc1ccc(-n2ccnc2SCC(=O)NCc2ccc3c(c2)OCO3)cc1 | inconclusive: 56.2 µM [inhibitor, partial curve]
Cc1cc2c(ncn2C(C)C)c(N)c1C | inconclusive: 89.1 µM [inhibitor, partial curve]
CC(Oc1ccccc1)C(=O)Nc1cccc(-c2cn3cccnc3n2)c1 (stereo not given) | inactive
Cc1nc(N)sc1C(=O)NN | inconclusive: 14.1 µM [inhibitor, partial curve]
O=C(CNCC1CCCO1)Nc1ccccc1N1CCCCCC1 (stereo not given) | inconclusive: 0.708 µM [inhibitor, full curve, poor fit]
CC1CCC2(CC1)NC(=S)N(C(C)(C)C)N2 (stereo not given) | inconclusive: 20 µM [inhibitor, partial curve, poor fit]

Compound | Potency
CO/N=C(\c1nonc1N)N1CCN(c2ccc(Cl)cc2[N+](=O)[O-])CC1 | inconclusive: 15.8 µM [inhibitor, partial curve]
Cc1cc2c(cc1NS(=O)(=O)c1ccc(NC(=O)CC(C)C)cc1)n(C)c(=O)c(=O)n2C | inactive
COC(=O)C1=C(C(=O)OC)[C@@H]2N(C)c3ccccc3[C@@]23C[C@@H](C(=O)OC)N(C(=O)c2ccc(Br)cc2)C3=N1 | inconclusive: 15.8 µM [inhibitor, full curve]
CC1(c2ccccc2)NC(=O)N(CC(=O)NNC(=O)c2cccc(Cl)c2)C1=O (stereo not given) | inactive
Cc1ccc(-c2csc(/C(C#N)=C/Nc3ccc4c(c3)OCCO4)n2)cc1 | inactive
O=C1Cc2cc([N+](=O)[O-])ccc2N1c1c(Cl)cccc1Cl | inconclusive: 22.4 µM [inhibitor, full curve, poor fit]
CCc1ccccc1S(=O)(=O)Cc1ccc(C(=O)NCCc2ccc(C)cc2)o1 | active: 20 µM
COc1ccc(NC(=S)NNc2ccc([N+](=O)[O-])cc2S(=O)(=O)Nc2ccc(C)cc2C)cc1 | active: 31.6 µM
O=C1CN(CC(=O)Nc2ccc(SC(F)F)cc2)CCN1 | inactive
O=C(O)c1ccccc1N/N=C\c1ccnc2ccccc12 | inconclusive: 50.1 µM [inhibitor, partial curve, poor fit]
CC(C)(C)c1ccc(-c2n[nH]c(=S)n2C2CCCC2)cc1 | inconclusive: 79.4 µM [inhibitor, partial curve]
Cc1ccc(C(=O)Nc2ccc3c(c2)OCCO3)cc1S(=O)(=O)N1CCOCC1 | inconclusive: 39.8 µM [inhibitor, partial curve]
O=C(CCc1cccc(Cl)c1)N1CCCC(Nc2ccccc2)C1 (stereo not given) | inconclusive: 50.1 µM [inhibitor, partial curve]
CCN(CC)CCC(c1ccc(N(C)C)cc1)c1c(OC)cc(OC)c2c1OC(=O)CC2c1ccc(N(C)C)cc1 (stereo not given) | active: 12.6 µM
CCc1ccc(-n2cc(-c3ccc(F)cc3)[n+]3c2SCCC3)cc1 | inactive
COc1ccc(N2CCN(CCCNC(=O)c3cnn(-c4ccc(C)cc4)c3-n3cccc3)CC2)cc1 | inconclusive: 56.2 µM [inhibitor, partial curve, poor fit]
O=c1[nH][nH]c(=O)c2c(NS(=O)(=O)c3ccccc3)cccc12 | active: 44.7 µM
CSc1ccccc1C(=O)Nc1ccccc1C | inactive
COc1ccc(OC)c(S(=O)(=O)NNC(=S)Nc2ccc3c(c2)OCO3)c1 | inconclusive: 2.24 µM [inhibitor, partial curve, poor fit]
CCn1c(SC(=O)NC2CCCCC2)nnc1-c1cccs1 | active: 4.47 µM
CCOc1ccc(NC(=O)N(Cc2cn(CC)c3ccccc23)C2CCCCCC2)cc1 | inconclusive: 39.8 µM [inhibitor, partial curve]
O=C(CN1C(=O)S/C(=C\C=C\c2ccccc2)C1=O)NC1CCS(=O)(=O)C1 (stereo not given) | inconclusive: 3.98 µM [inhibitor, full curve, poor fit]
